# Results: the supplement of paper PMC11060735
# “And” between values parts separate entries of the source, which are not always exact repeats. Equal entries are not always repeated. Structures can show the parent of a compound that is named as a salt. The campaign covered roughly 1,800 compounds. About 50 (3%) showed activity. The list shows a part of the results.
# Test system: mouse p16Ink4a+/- lung fibroblasts (INKBRITE, bleomycin-injured)
# Experiment: percentage of GFP+ (p16Ink4a+) fibroblasts among all cells in well; higher = less depletion of p16Ink4a+ cells, active = 20 or less
# Details: 1 µM; 3 days
# 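Also: fibroblasts sorted 14 days after bleomycin, GFP+ and GFP− mixed 1:1 in 384-well plates (GFP− as in-well control), imaged after Hoechst and NucView530 staining, reference wells lacked compound.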
row,Structure (SMILES),percentage of GFP+
1,C[C@]12CC[C@H]3[C@@H](CC[C@@]45O[C@@H]4C(O)=C(C#N)C[C@]35C)[C@@H]1CC[C@@H]2O [Trilostane],inactive: 44%
2,C[C@]12CC[C@H](O)CC1=CC[C@@H]1[C@@H]2CC[C@]2(C)C(=O)CC[C@@H]12 [Prasterone],inactive: 39%
3,CN1CCCCC1Cn1cc(C(=O)c2cc([N+](=O)[O-])ccc2I)c2ccccc21 (stereo not drawn),inactive: 39.9%
4,Cc1cc(SCc2sc(-c3ccc(C(F)(F)F)c(F)c3)nc2C)ccc1OCC(=O)O,inactive: 45%
5,CC(C)[C@]12O[C@H]1[C@@H]1O[C@]13[C@]1(O[C@H]1C[C@H]1C4=C(CC[C@@]13C)C(=O)OC4)[C@@H]2O [Triptolide],active: 4.17%
6,C/C=C(\C)C(=O)N[C@@H](c1ccccc1)[C@@H](O)C(=O)O[C@H]1C[C@@]2(O)[C@@H](OC(=O)c3ccccc3)[C@@H]3[C@]4(OC(C)=O)CO[C@@H]4C[C@H](O)[C@@]3(C)C(=O)[C@H](OC(C)=O)C(=C1C)C2(C)C [Cephalomannine],inactive: 24.8%
7,C[N+]1(C)[C@@H]2C[C@@H](OC(=O)[C@H](CO)c3ccccc3)C[C@H]1[C@@H]1O[C@@H]12 [Methscopolamine Bromide],inactive: 37.9%
8,Oc1nc2ccc(Cl)cc2c(N[C@@H]2CN3CCC2CC3)c1-c1nc2ccccc2[nH]1,inactive: 20.3%
9,C[N+](C)(C)CCCCCCCCCC[N+](C)(C)C [Decamethonium],inactive: 58.1%
10,Cc1cccc([C@H](C)c2c[nH]cn2)c1C [Dexmedetomidine],inactive: 46.8%
11,O=C(Oc1ccc([N+](=O)[O-])cc1)N1CCC(C(O)(c2ccc3c(c2)OCO3)c2ccc3c(c2)OCO3)CC1,inactive: 55.8%
12,O=P1(NCCCl)OCCCN1CCCl (stereo not drawn) [Ifosfamide],inactive: 45.7%
13,COc1ccc(CC2NCCc3cc(OC)c(OC)cc32)cc1OC (stereo not drawn) [Tetrahydropapaverine HCl],inactive: 24.2%
14,"COc1ccc(C(CN(C)C)C2(O)CCCCC2)cc1 (stereo not drawn) [Venlafaxine, Venlafaxine Hydrochloride]",inactive: 42%
15,O=C(O)c1nn(Cc2ccc(Cl)cc2Cl)c2ccccc12 [Lonidamine],inactive: 40.7%
16,Cc1ccccc1-n1c(Cn2ncc3c(N)ncnc32)nc2cccc(C)c2c1=O,inactive: 38.7%
17,CN(C)Cc1c[nH]c2ccccc12 [Gramine],inactive: 35.9%
18,CCN1CCN(C(=O)Cc2ccc(Nc3ncc(F)c(Nc4ccc(C(=O)Nc5ccccc5Cl)cc4)n3)cc2)CC1 [Aurora A Inhibitor I],inactive: 38.8%
19,CN1CCc2cc3c(cc2[C@H]1[C@@H]1OC(=O)c2c1ccc1c2OCO1)OCO3 [Bicuculline],inactive: 41.7%
20,C[C@@H]1[C@H](O)[C@@H](C)/C=C/C=C/CC/C=C/C=C/C=C/C=C/[C@H](O[C@H]2O[C@@H](C)[C@H](O)[C@@H](N)[C@H]2O)C[C@@H]2O[C@](O)(C[C@@H](O)[C@H](O)CC[C@@H](O)C[C@@H](O)C[C@@H](O)CC(=O)O[C@H]1C)C[C@H](O)[C@H]2C(=O)O [Nystatin (Fungicidin)],inactive: 43.1%
21,CC(C)(C)[C@]1(O)C[C@@H]2OC(=O)C[C@@]23C(=O)O[C@@H]2OC(=O)[C@H](O)C213 (stereo partly drawn) [Bilobalide],inactive: 47.1%
22,C=C[C@H]1CN2CCC1C[C@H]2[C@H](O)c1ccnc2ccccc12 (stereo partly drawn) [Cinchonidine],inactive: 41.1%
23,C[C@@H]1O[C@@H](O[C@H]2C[C@@H](O)[C@]3(CO)[C@H]4[C@H](O)C[C@]5(C)[C@@H](C6=CC(=O)OC6)CC[C@]5(O)[C@@H]4CC[C@]3(O)C2)[C@H](O)[C@H](O)[C@H]1O [Ouabain],inactive: 50.5%

row,Structure (SMILES),percentage of GFP+
1,C/C(=C\c1csc(C)n1)[C@@H]1C[C@@H]2O[C@@H]2CCC[C@H](C)[C@H](O)[C@@H](C)C(=O)C(C)(C)[C@@H](O)CC(=O)O1 [Epothilone A],inactive: 34.7%
2,C=CCN1CC[C@]23c4c5ccc(O)c4O[C@H]2C(=O)CC[C@@]3(O)[C@H]1C5 [Naloxone],inactive: 44.1%
3,COc1cc(OC)c(OC)cc1C=O [Asarylaldehyde],inactive: 51.5%
4,Cc1cc(C(=O)CN2CCCC2)c(C)n1-c1ccc(F)cc1,inactive: 51.3%
5,Cc1cccc(C(C)c2c[nH]cn2)c1C (stereo not drawn) [Medetomidine HCl],inactive: 37.5%
6,CN1[C@@H]2CC[C@H]1C[C@@H](OC(=O)C(CO)c1ccccc1)C2 (stereo partly drawn) [Atropine],inactive: 33.7%
7,CC(=O)OCC1=C(C(=O)O)N2C(=O)[C@H](N)[C@H]2SC1 [7-Aminocephalosporanic acid],inactive: 40.5%
8,CCC1(c2cccc(O)c2)CCCCN(C)C1 (stereo not drawn) [Meptazinol HCl],inactive: 51.1%
9,c1ccc2c(c1)sc1ccccc12 [Dibenzothiophene],inactive: 48.2%
10,"CC(O)(CS(=O)(=O)c1ccc(F)cc1)C(=O)Nc1ccc(C#N)c(C(F)(F)F)c1 (stereo not drawn) [(r)-bicalutamide, Bicalutamide]",inactive: 48.4%
11,Cc1cc(O)ccc1Cl [Chlorocresol],inactive: 50.5%
12,COc1cc(-n2c(=S)[nH]c3ccccc3c2=O)c(Cl)cc1Cl [Mdivi-1],inactive: 43.5%
13,Cc1cc(C(C#N)c2ccc(Cl)cc2)c(Cl)cc1NC(=O)c1cc(I)cc(I)c1O (stereo not drawn) [Closantel],inactive: 46.5% and inactive: 50.1%
14,C[C@]12CC[C@H](O)C[C@@H]1CC[C@@H]1[C@@H]2CC[C@]2(C)C(=O)CC[C@@H]12 [Epiandrosterone],inactive: 50.6%
15,Nc1nc(N)nc(NC2CC2)n1 [Cyromazine],inactive: 39.5%
16,CC(=O)Nc1ccc(Cc2ccc(NC(C)=O)cc2)cc1,inactive: 44.5%
17,O=S(=O)(F)Cc1ccccc1,inactive: 54%
18,Cn1cc(C2=C(c3cn(C4CCN(Cc5ccccn5)CC4)c4ccccc34)C(=O)NC2=O)c2ccccc21 [Enzastaurin],inactive: 52.8%
19,CN1[C@@H]2C[C@@H](O)C[C@H]1[C@@H]1O[C@@H]12 [Scopine HCl],inactive: 42% and inactive: 40.5%
20,C=C1C[C@@H]2[C@H](CC[C@]3(C)C(=O)CC[C@@H]23)[C@@]2(C)C=CC(=O)C=C12 [Exemestane],inactive: 36.2%
21,NCCc1c[nH]c2ccc(O)cc12 [Serotonin Hydrochloride],inactive: 46.3%
22,O=C1CC[C@@]2(O)[C@H]3Cc4ccc(O)c5c4[C@@]2(CCN3CC2CC2)[C@H]1O5 [Naltrexone;  _x000D_  naltrexone depot],inactive: 40.2%
23,Cc1ccc(-n2nccn2)c(C(=O)N2CCN(c3nc4cc(Cl)ccc4o3)CC[C@H]2C)c1 [Suvorexant],inactive: 39.7%

row,Structure (SMILES),percentage of GFP+
1,COc1ccc(C(=O)N2CCCC2=O)cc1 [Aniracetam],inactive: 48.5%
2,CCCC[N+]1(C)[C@@H]2C[C@@H](OC(=O)[C@H](CO)c3ccccc3)C[C@H]1[C@@H]1O[C@@H]12 (stereo partly drawn) [Scopolamine butylbromide],inactive: 34.4%
3,NC(=O)CN1CCCC1=O [Piracetam],inactive: 47.8%
4,C[C@@H]1CC[C@@]2(OC1)O[C@H]1C[C@H]3[C@@H]4CC=C5C[C@@H](O[C@@H]6O[C@H](CO)[C@@H](O[C@@H]7O[C@@H](C)[C@H](O)[C@@H](O)[C@H]7O)[C@H](O)[C@H]6O[C@@H]6O[C@@H](C)[C@H](O)[C@@H](O)[C@H]6O)CC[C@]5(C)[C@H]4CC[C@]3(C)[C@H]1[C@@H]2C [Dioscin],inactive: 32.7%
5,CN1C2CCC1CC(OC(=O)[C@H](CO)c1ccccc1)C2 (stereo partly drawn) [Hyoscyamine],inactive: 46.3%
6,CCC1=C[C@@H]2CN3CCc4c([nH]c5ccccc45)[C@@](C(=O)OC)(C2)[C@@H]13 [Catharanthine],inactive: 47.9%
7,CN1CCC(c2c[nH]c3ccc(O)cc23)CC1,inactive: 45.6%
8,O=C1CCC[C@@H]2[C@H]3CCCN4CCC[C@@H](CN12)[C@@H]34 [(+)-Matrine],inactive: 45.5%
9,O=c1ccc2cc(O[C@@H]3O[C@H](CO)[C@@H](O)[C@H](O)[C@H]3O)c(O)cc2o1 [Esculin],inactive: 41.7%
10,"NCC(O)c1ccc(O)cc1 (racemic) [(¬±)-octopamine Hydrochloride, Octopamine Hydrochloride]",inactive: 42.7%
11,"Cc1cccc(C)c1NC1=NCCCS1 [Xylazine Hydrochloride, Xylazine]",inactive: 39.9%
12,C[C@](O)(COc1ccc(C#N)cc1)C(=O)Nc1ccc(C#N)c(C(F)(F)F)c1,inactive: 43.3%
13,CCC(COC(=O)c1cc(OC)c(OC)c(OC)c1)(c1ccccc1)N(C)C (stereo not drawn) [Trimebutine],inactive: 42.6%
14,C=CC[C@]1(O)CC[C@H]2[C@@H]3CCC4=CC(=O)CCC4=C3C=C[C@@]21C [Altrenogest],inactive: 48.5%
15,N[C@@H]1C[C@H]1c1ccccc1 [Tranylcypromine (2-PCPA) HCl],inactive: 47.5%
16,Cc1cc2c(C(C)C)c(O)c(O)c(C=O)c2c(O)c1-c1c(C)cc2c(C(C)C)c(O)c(O)c(C=O)c2c1O [Gossypol],inactive: 48.8% and inactive: 49.7%
17,CCN(C)C(=O)Oc1cccc([C@H](C)N(C)C)c1 [Rivastigmine],inactive: 48.3%
18,C1=C2CCCN[C@H]2[C@@H]2C[C@H]1[C@H]1CCCCN1C2 [Aloperine],inactive: 44.4%
19,CNCC(=O)c1ccc(O)c(O)c1 [Adrenolone Hydrochloride],inactive: 42%
20,CC(C)N(CCNC(=O)CN1CCCC1=O)C(C)C [Pramiracetam],inactive: 39.9%
21,CCOc1ccccc1-n1c(C(C)N2CCN(C(=O)COc3ccc(Cl)cc3)CC2)nc2ccccc2c1=O (stereo not drawn) [Erastin],inactive: 34.3%
22,COC(=O)C1=CCCN(C)C1 [Arecoline],inactive: 45.2%
